Values after ≈ are worked out from the molar mass of the structure shown.

A short description of this test: Antimicroalgal activity, summary over the four phytoplankton species tested. As to conditions: read-out: IC50 against the phytoplankton species tested.
On to `C/C=C/CCC(O)C(O)C/C=C/C(O)C(C)O` (stereo not shown) [Compound 4, (4E,11E)-trideca-4,11-diene-2,3,7,8-tetraol], for which the IC50 is ≥ 30 µg/mL.
In the case of `C/C=C/CCC(O)C(O)C/C=C/CC(C)O` (stereo not shown) [Compound 5, (4E,11E)-trideca-4,11-dien-2,7,8-triol], the IC50 is ≥ 30 µg/mL.
To `C/C=C/CCC(O)C(O)/C=C/C=C/C(O)CO` (stereo not shown) [Compound 2, (3E,5E,11E)-trideca-3,5,11-trien-1,2,7,8-tetraol] belongs ≥ 30 µg/mL; to `C/C=C/CCC(O)C(O)C/C=C/CO` (stereo not shown) [Compound 6, (2E,9E)-undeca-2,9-dien-1,5,6-triol], ≥ 30 µg/mL; to `CC=CCCC1(O)OC(C(O)C=CC)CC1O` (stereo not shown) [Compound 1, Trichoderol B], 15 to 28 µg/mL (≈ 61.9 to 116 µM).
To `C=CCC(O)/C=C/C(O)C(O)CC/C=C/C` (stereo not shown) [Compound 3, (5E,11E)-trideca-1,5,11-trien-4,7,8-triol] belongs ≥ 30 µg/mL.
To `C/C=C/CC[C@@H](O)[C@@H](O)C/C=C/[C@@H](O)[C@H](C)O` [Compound 7, triharzianin B] belongs ≥ 30 µg/mL.
